# Reference: PubChem BioAssay (Tox21)
# The inconclusive results got no clear call from the source; some entries with a clear call stand among them for comparison. For some assays here: Potencies of inconclusive entries are left out as doubtful fits. Some structures have more than one record in an assay (separate samples or runs), and their calls can disagree. Active and inactive are the calls of the source. Unless noted, calls follow the shape of the dose curve; as a rule, active = well fitted curve in the direction sought with a large enough effect in the repeat runs; inconclusive = weak or mixed curves; inactive = no such curve, though single readings can be large; an effect the other way counts as inactive or inconclusive.
# Key:
# [1] = qHTS assay for small molecule disruptors of the mitochondrial membrane potential - cell viability (AID 720634; calls by dose curve;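 also: human HepG2 liver cancer cells; nearly all actives have a fitted effect of over 20% in size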)
# Outline: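 HepG2 cells seeded overnight at 37 C, then exposed to compound or DMSO for 1 hr at 37 C, 5% CO2. m-MPI dye added, then CellTiter-Glo for 30 min at room temperature; viability read as ATP luminescence.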
# [2] = qHTS assay to identify small molecule antagonists of the androgen receptor (AR) signaling pathway using the MDA cell line in the presence of 0.5 nM R1881 - cell viability counter screen (AID 1259242); also: nearly all actives have a fitted effect of over 45% in size
# Outline: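 MDA-kb2 cells (human breast carcinoma, stably carrying MMTV-luciferase reporter) were exposed to compounds with 0.5 nM R1881 (final) for 16 hr at 37C, 0% CO2; viability then read as live-cell protease fluorescence (CellTiter-Fluor, 30 min) in the same wells.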
# [3] = qHTS assay to identify small molecule agonists of the vitamin D receptor (VDR) signaling pathway - cell viability counter screen (AID 743224); also: nearly all actives have a fitted effect of over 50% in size
# Outline: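 VDR-bla cells were preincubated 4 h at 37C/5% CO2, then exposed to compounds for 16 h. After the 2 h room-temperature bla FRET read, CellTiter-Glo was added to the same wells and luminescence read after 30 min.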
# [4] = qHTS assay for small molecule activators of the heat shock response signaling pathway - cell viability counter screen (AID 743209); conditions: HSE-bla HeLa viability, CellTiter-Glo luminescence, 5 h; activity change, negative = cytotoxicity: at 62.6 µM (top of the series); also: nearly all actives have a fitted effect of over 50% in size; also: potency is read from the fitted curve at half-maximal effect
# Outline: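 CellSensor HSE-bla HeLa cells, plated overnight at 37 C/5% CO2, were exposed to compounds in DMSO for 5 h at 37 C. Viability was then read in the same wells by CellTiter-Glo luminescence after 30 min at room temperature.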
# [5] = qHTS assay to identify small molecule agonists of the peroxisome proliferator-activated receptor delta (PPARd) signaling pathway - cell viability counter screen (AID 743211); conditions: PPARd-bla HEK293H viability, CellTiter-Glo luminescence, 17 h; activity change, negative = cytotoxicity: at 62.6 µM (top of the series); also: nearly all actives have a fitted effect of over 55% in size
# Outline: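 In the same wells used for beta-lactamase reporter measurement, cytotoxicity is scored by CellTiter-Glo. HEK293H PPARd-bla cells receive compound for 17 h at 37C following a 5 h settling period.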
# [6] = A CellTox Green Cytotoxicity Assay to monitor cytotoxicity in HepG2 cells - 24 hour (AID 1224878); also: nearly all actives have a fitted effect of over 45% in size; also: potency is read from the fitted curve at half-maximal effect
# Outline: (§1)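 HepG2 cells were seeded together with the CellTox Green dye at 600 cells/well, left 5 h at 37 C/5% CO2, then given compounds in DMSO. Fluorescence from dye bound to dead-cell DNA was read repeatedly over 40 h of treatment at 37 C.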
# [7] = biological target: Progesterone receptor (Homo sapiens) (UniProt P06401); assay: qHTS assay to identify small molecule agonists of the progesterone receptor (PR) signaling pathway (AID 1346784; calls by dose curve; also: nearly all actives have a fitted effect of over 30% in size); conditions: PR-UAS-bla HEK293T, beta-lactamase FRET ratio, 16 h; activation: at 92.4 µM (top of the series) unless noted
# UniProt P06401, sequence (P06401 whole entry, looked up): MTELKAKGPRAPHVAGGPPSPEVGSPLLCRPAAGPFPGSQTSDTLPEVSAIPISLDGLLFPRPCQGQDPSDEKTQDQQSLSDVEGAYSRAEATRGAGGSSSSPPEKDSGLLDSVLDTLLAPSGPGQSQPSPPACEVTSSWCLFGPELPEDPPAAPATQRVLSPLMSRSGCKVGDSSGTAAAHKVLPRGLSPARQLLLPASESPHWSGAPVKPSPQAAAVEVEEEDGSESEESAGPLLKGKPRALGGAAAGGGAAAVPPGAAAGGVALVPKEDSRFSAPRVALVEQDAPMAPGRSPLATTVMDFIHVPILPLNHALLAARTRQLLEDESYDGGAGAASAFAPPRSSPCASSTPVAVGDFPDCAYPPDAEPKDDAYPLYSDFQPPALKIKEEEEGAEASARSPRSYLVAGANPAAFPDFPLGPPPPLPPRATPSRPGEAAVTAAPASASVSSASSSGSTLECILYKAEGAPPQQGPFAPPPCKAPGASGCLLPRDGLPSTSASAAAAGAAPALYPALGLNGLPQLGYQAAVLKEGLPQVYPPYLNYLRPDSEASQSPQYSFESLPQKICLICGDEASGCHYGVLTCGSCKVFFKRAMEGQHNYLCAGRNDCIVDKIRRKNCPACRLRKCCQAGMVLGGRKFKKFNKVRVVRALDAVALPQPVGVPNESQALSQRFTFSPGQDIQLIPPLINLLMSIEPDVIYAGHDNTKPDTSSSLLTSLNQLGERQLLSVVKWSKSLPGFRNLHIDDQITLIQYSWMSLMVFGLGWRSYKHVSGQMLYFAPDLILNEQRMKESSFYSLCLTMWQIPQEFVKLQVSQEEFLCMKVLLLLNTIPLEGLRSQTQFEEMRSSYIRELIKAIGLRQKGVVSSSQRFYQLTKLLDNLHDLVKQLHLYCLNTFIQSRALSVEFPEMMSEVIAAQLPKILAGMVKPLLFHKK
# Outline: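 Reporter assay, GripTite PR-UAS-bla HEK 293T cells: 16 hr exposure to DMSO-dissolved compounds at 37C, 5% CO2, in steroid-depleted (2% charcoal-stripped FBS) medium; beta-lactamase measured by FRET fluorescence.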
# [8] = qHTS RealTime-Glo MT Cell Viability Assay in HepG2 cells - 24 hour (AID 1224867); also: nearly all actives have a fitted effect of over 50% in size
# Outline: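 HepG2 cells were seeded at 600 cells/well together with NanoLuc luciferase and a cell-permeant prosubstrate, preincubated 5 h at 37 C/5% CO2, then pin-dosed with compounds in DMSO. Nonlytic luminescence from viable cells was read at each time point.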
# [9] = biological target: Estrogen receptor beta (Homo sapiens) (UniProt Q92731); assay: qHTS assay to identify small molecule agonists of the estrogen receptor beta (ER-beta) signaling pathway (AID 1259377; active = well fitted activation curve with a large enough effect in the signal ratio in the repeat runs, not every such curve was filed as active; inconclusive = weak or mixed curves, or effect the other way; the % refers to the signal ratio); conditions: ER-beta-UAS-bla HEK293T, beta-lactamase FRET ratio, 16 h; activation: at 92.4 µM (top of the series) unless noted
# UniProt Q92731, sequence (Q92731 whole entry, looked up): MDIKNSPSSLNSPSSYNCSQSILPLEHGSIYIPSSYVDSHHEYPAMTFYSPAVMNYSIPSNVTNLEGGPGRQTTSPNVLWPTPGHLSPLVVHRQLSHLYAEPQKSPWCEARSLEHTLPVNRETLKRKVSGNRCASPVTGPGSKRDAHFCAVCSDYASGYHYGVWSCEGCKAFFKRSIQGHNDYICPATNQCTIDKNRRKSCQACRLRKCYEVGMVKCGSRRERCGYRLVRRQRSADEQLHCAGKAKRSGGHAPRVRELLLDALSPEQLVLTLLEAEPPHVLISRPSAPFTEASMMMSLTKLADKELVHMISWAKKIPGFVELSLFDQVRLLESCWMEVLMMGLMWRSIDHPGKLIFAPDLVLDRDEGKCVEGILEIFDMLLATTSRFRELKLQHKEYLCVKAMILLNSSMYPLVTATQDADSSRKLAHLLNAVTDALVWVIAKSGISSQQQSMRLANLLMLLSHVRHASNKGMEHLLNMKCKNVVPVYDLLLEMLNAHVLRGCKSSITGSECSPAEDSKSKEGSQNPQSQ
# Outline: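 Reporter cells (HEK293T, ER-beta-UAS-bla) receive compounds or DMSO after a 6 hr pre-incubation. They then incubate 16 hr at 37C/5% CO2, and fluorescence from LiveBLAzer B/G substrate is measured after 2 hours at room temperature.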
# [10] = qHTS assay to identify small molecule agonists of the androgen receptor (AR) signaling pathway in the presence of an antagonist - cell viability counter screen (AID 1259379); also: nearly all actives have a fitted effect of over 25% in size; also: potency is read from the fitted curve at half-maximal effect
# Outline: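 MDA-kb2 human breast carcinoma cells (stable MMTV-luciferase, AR/GR responsive) were seeded 3,000 cells/well, pre-incubated 5 hr at 37C without CO2, then given 3.0uM nilutamide and compounds at 15 concentrations for 16 hr. Viability was read by CellTiter-Fluor fluorescence.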
# [11] = qHTS RealTime-Glo MT Cell Viability Assay in HEK293 cells - 16 hour (AID 1224872); also: nearly all actives have a fitted effect of over 50% in size; also: potency is read from the fitted curve at half-maximal effect; as to activity change, negative = cytotoxicity: top concentration of the series differs between compounds
# Outline: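 HEK293 cells were seeded at 600 cells/well together with NanoLuc luciferase and cell-permeant prosubstrate, preincubated 5 h at 37 C/5% CO2, then given compound in DMSO by pintool. Luminescence from viable-cell prosubstrate reduction was read repeatedly over 40 h.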
# [12] = qHTS RealTime-Glo MT Cell Viability Assay in HEK293 cells - 8 hour (AID 1224887)
# Outline: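 HEK293 cells mixed with RealTime-Glo reagents (NanoLuc plus cell-permeant prosubstrate) at 600 cells/well, preincubated 5 h at 37 C/5% CO2, then given 23 nL compound in DMSO. Nonlytic luminescence from viable cells was read at 0, 8, 16, 24, 32 and 40 h.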
# Aromatase (Homo sapiens) = Aromatase (Homo sapiens) (UniProt P11511); assay: qHTS assay to identify aromatase inhibitors (AID 743083); also: nearly all actives have a fitted effect of over 55% in size; also: potency is read from the fitted curve at half-maximal effect
# UniProt P11511, sequence (P11511 whole entry, looked up): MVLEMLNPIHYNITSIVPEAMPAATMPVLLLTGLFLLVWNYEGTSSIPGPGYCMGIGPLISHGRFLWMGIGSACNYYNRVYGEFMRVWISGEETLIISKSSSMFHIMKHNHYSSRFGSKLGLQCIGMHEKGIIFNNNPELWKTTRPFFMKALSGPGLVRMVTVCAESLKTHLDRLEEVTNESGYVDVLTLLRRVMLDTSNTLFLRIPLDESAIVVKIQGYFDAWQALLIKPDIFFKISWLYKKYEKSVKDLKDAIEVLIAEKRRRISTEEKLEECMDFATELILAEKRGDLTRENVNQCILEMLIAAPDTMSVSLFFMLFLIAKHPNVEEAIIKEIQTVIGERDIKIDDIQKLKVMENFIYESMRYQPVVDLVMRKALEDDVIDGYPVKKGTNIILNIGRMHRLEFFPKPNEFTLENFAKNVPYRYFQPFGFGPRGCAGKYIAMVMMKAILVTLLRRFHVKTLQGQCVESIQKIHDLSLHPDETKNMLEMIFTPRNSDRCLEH
# [13] = biological target: Aryl hydrocarbon receptor (Homo sapiens) (UniProt P35869); assay: qHTS assay to identify small molecule that activate the aryl hydrocarbon receptor (AhR) signaling pathway (AID 743085); also: potency is read from the fitted curve at half-maximal effect; nearly all actives have a fitted effect of over 15% in size
# UniProt P35869, sequence (P35869 whole entry, looked up): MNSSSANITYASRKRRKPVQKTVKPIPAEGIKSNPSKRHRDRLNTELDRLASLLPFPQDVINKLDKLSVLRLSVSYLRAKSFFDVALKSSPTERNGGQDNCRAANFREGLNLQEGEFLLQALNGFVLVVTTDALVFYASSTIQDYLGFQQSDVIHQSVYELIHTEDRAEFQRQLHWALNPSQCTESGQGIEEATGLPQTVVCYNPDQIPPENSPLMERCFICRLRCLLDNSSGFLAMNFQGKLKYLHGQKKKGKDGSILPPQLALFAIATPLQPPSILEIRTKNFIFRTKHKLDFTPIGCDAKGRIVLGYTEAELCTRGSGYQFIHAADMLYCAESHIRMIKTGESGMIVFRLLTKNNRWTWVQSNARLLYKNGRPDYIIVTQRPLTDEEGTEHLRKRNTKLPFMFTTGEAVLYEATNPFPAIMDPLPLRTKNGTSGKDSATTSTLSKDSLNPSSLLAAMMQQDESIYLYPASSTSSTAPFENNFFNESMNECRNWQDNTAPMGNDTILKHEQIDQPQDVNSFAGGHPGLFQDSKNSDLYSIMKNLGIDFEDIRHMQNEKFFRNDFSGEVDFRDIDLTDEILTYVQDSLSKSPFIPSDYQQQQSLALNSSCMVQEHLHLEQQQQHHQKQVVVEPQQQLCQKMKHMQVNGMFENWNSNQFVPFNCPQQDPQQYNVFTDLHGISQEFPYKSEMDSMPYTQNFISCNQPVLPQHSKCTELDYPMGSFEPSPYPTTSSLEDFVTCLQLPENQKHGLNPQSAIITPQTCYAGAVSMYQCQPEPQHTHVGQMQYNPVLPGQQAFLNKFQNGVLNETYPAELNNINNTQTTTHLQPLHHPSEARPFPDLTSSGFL
# Outline: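 Stably transfected human liver carcinoma cells (HG2L7.5c1; 20 DRE-firefly luciferase) were incubated 5 h, dosed, and kept 24 h at 37C. Agonism was scored from increased luciferase luminescence.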
# [14] = qHTS RealTime-Glo MT Cell Viability Assay in HepG2 cells - 40 hour (AID 1224870); also: nearly all actives have a fitted effect of over 50% in size; also: potency is read from the fitted curve at half-maximal effect
# Outline: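 HepG2 cells mixed with RealTime-Glo MT reagents (NanoLuc plus cell-permeant prosubstrate) were seeded at 600 cells/well, incubated 5 h at 37 C/5% CO2, then pinned with compounds in DMSO; nonlytic luminescence tracked viability during 40 h treatment.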
# [15] = qHTS assay to identify small molecule agonists of the TGF-beta/Smad signaling pathway (AID 1346859; active = well fitted activation curve with a large enough effect in the signal ratio in the repeat runs, not every such curve was filed as active; inconclusive = weak or mixed curves; the % refers to the signal ratio; also: potency is read from the fitted curve at half-maximal effect)
# Outline: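 Screening used HEK 293T SBE-bla cells at 4,000/well. Test agents: 5 hr, 37 C. Detection: FRET substrate, 2 hr RT, then excitation 405 nm with emissions at 460 and 530 nm.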
# [16] = A CellTox Green Cytotoxicity Assay to monitor cytotoxicity in HepG2 cells - 16 hour (AID 1224876); also: nearly all actives have a fitted effect of over 45% in size; also: potency is read from the fitted curve at half-maximal effect
# Outline: as §1
# [17] = qHTS assay to identify small molecule antagonists of the glucocorticoid receptor (GR) signaling pathway - cell viability counter screen (AID 720693); conditions: GR-bla HeLa viability, CellTiter-Glo luminescence, 18 h, with 5 nM dexamethasone present; series mostly up to 58.5 µM; also: nearly all actives have a fitted effect of over 55% in size
# Tags tell the direction and shape of the fitted curve or compound fluorescence and quenching.
smiles,measurement,setting,value
CC(O)CN1CCN(CC(=O)[O-])CCN(CC(=O)[O-])CCN(CC(=O)[O-])CC1.[Gd+3] (centres undefined),Potency,[1],inactive
same,Potency,[2],inactive
CCc1cc2c(s1)-n1c(C)nnc1CN=C2c1ccccc1Cl,Potency,[3],inactive
CC1N=C(N)OC1c1ccccc1 (centres undefined),Potency,[4],"inconclusive [cytotoxic, single point]"
same,Potency,[5],inactive
same,Potency,[6],inactive
same,Potency,[7],inactive
Fc1cc(Br)ccc1CBr,Potency,[8],inactive
same,Potency,[9],inactive
O=[N+]([O-])c1cc(Cl)c(Cl)cc1Cl,Potency,[10],"inconclusive [cytotoxic, partial curve]"
CCCCCBr,Potency,[11],"inconclusive [cytotoxic, single point]"
same,Potency,[12],"inconclusive [cytotoxic, single point]"
CN(C)C1CCCCC1,Potency,Aromatase (Homo sapiens),inactive
same,Potency,[8],inactive
same,Potency,[11],"inconclusive [rising, partial curve]"
C[C@H](N)C(=O)c1ccccc1,Potency,[13],"inconclusive [activator, single point]"
same,Potency,[5],inactive
same,Potency,[8],inactive
CCCCn1cc[n+](C)c1 (tested in a mixture with another compound),Potency,[8],inactive
CCC1(c2cccc(O)c2)CCCCN(C)C1 (centres undefined),Potency,[5],inactive
same,Potency,[7],inactive
C[N+]1(C)[C@@H]2CC[C@H]1CC(OC(=O)C(CO)c1ccccc1)C2 (some centres undefined),Potency,[14],active: 23.9 µM
same,Potency,[9],inactive
same,Potency,[15],inactive
CC(C)CC(N(C)C)C1(c2ccc(Cl)cc2)CCC1 (centres undefined),Potency,[16],"inconclusive [activator, single point]"
same,Potency,[6],"inconclusive [activator, single point]"
same,Potency,[12],"inconclusive [cytotoxic, partial curve, poor fit]"
BrCCc1ccccc1,Potency,[16],inactive
same,Potency,[9],inactive
CC(C)CON=O,Potency,[9],inactive
same,Potency,[10],inactive
CN(C)N,Potency,[5],inactive
same,Potency,[16],active: 54.9 µM
same,Potency,[6],"inconclusive [activator, single point]"
CC(=O)[O-].CC(=O)[O-].CC(=O)[O-].[Sb+3],Potency,[14],"inconclusive [rising, single point]"
C/C=C/CC#N,Potency,[5],inactive
C#CC(O)(C=CCl)CC (centres undefined),Potency,[14],inactive
same,Potency,[10],inactive
ClCC(Cl)(Cl)Cl,Potency,[4],inactive
same,Potency,[8],inactive
same,Potency,[11],inactive
same,Potency,[2],inactive
same,Potency,[15],"inconclusive [rising, partial curve, poor fit]"
CN(CCCC(=O)c1cccnc1)N=O,Potency,[14],"inconclusive [rising, single point]"
same,Potency,[6],inactive
ClC(Cl)C(Cl)Cl,Potency,[17],inactive
same,Potency,[4],inactive
same,Potency,[16],"inconclusive [activator, single point]"
same,Potency,[6],"inconclusive [activator, single point]"
CC(C)[N+](=O)[O-],Potency,[14],inactive
C=CC(=O)N(C)C,Potency,[14],"inconclusive [falling, single point]"
same,Potency,[10],inactive
[P]#[In],Potency,[11],inactive
ClCCN1CCCC1,Potency,[4],"inconclusive [cytotoxic, single point]"
CC(=O)O.CC(=O)O.CC(=O)O.CC(=O)O.CC(=O)O.CC(=O)O.CC(=O)O.O.O.[Cr].[Cr].[Cr],Potency,[4],inactive
same,Potency,[11],inactive
same,Potency,[6],inactive
Nc1ccc(N)c2ccccc12,Potency,Aromatase (Homo sapiens),active: 3.06 µM
C=CCOCC1CO1 (centres undefined),Potency,[2],inactive
